Experimental data reported in the supplement of paper PMC11417369.
± gives the standard deviation of the averaged measurements. This is one part of the list.

Tested on: PfAP2-LT AP2 domain (GST-tagged)
Assay: gcPBM binding intensity (ln(normalized median fluorescence intensity)); higher = stronger DNA binding
In short: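 The highest Masliner-normalised natural-log median intensity across replicate spots of either probe orientation is reported as binding intensity. GST-tagged P. falciparum DNA-binding domains expressed in E. coli were applied for 1 h to an Agilent 4 × 180k array of primer-extended double-stranded 36-bp intergenic genomic probes plus negative controls, and bound protein was detected with Alexa488 anti-GST antibody and scanned at 488 nm.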

Row | Sequence | gcPBM binding intensity (ln)
1 | TTTTTTTTTTTTTTTTTTTTACAGAAAAATATTAAA [CACACA_negctrl_site128] | 8 ± 0.33
2 | ATGTGTTTCTTCAATTGTACTAAAAGGTATATATTG [XGTACX_site4608] | 8.85 ± 0.35
3 | TTATTCTAAAAATATACACACAACAACAAACAAACA [CACACA_site1543] | 9.16 ± 0.3
4 | TAGATAAAATGAACATGTACTCATCTTAATATATAT [XGTACX_site34] | 8.68 ± 0.49
5 | CAATATGGAAAATAAAGTACGCACACAAAAATTCTC [XGTACX_site4793] | 9.31 ± 0.34
6 | TACACCCACATATATATACACACTTTTATTTAAATA [CACACA_site1596] | 8.94 ± 0.33
7 | AATATATATATATGTGCACACATATATAATATGTAT [CACACA_site716] | 9.84 ± 0.3
8 | AAAAAAAATAATGTTGCACACAACAACAAACAAAAA [CACACA_site3290] | 9.04 ± 0.59
9 | TTTCATAAATAATAAAATAAAATATGAAGCAAAAGG [CACACA_negctrl_site1767] | 8.61 ± 0.47
10 | TAATTTTTTTAAGAGAGTACATGACTCAACAGTTTA [XGTACX_site3103] | 8.18 ± 0.35
11 | TTTTTTTTTTTTTGGAGTACATGTTTATAACATAAT [XGTACX_site1799] | 8.4 ± 0.48
12 | TTATATCCAACTTGAAAAAAGGTATATGTTTATATA [CACACA_negctrl_site1746] | 8.4 ± 0.44
13 | TGCTCTAATTTATATACACACAAATATGTACACATA [CACACA_site7845] | 9.15 ± 0.34
14 | ACAAACAAATAAATATGTACGAATAAATAAAATTTT [XGTACX_site4664] | 8.82 ± 0.41
15 | CTTTTAGAATAATCAGTGCAAAAAAAAAAAAAAAAA | 8.42 ± 0.38
16 | TTTTTTTTCAAAAATACAAAAAAAAAAGAAAAAAAC [CACACA_negctrl_site625] | 8.5 ± 0.4
17 | GATAATACATAAATTTATAAGTGGAAGAATAAATAA [CACACA_negctrl_site698] | 8.79 ± 0.49
18 | GAAATATTACAAAGTACATGCAACGAAAATTTCAGT [TGCATGCA_site608] | 8.99 ± 0.26
19 | ATTACATTTTTAATGCGTACTAAAAATGTATATAAG [XGTACX_site6384] | 8.53 ± 0.38

Row | Sequence | gcPBM binding intensity (ln)
20 | AATATAAAAATGTTTACACACACACCCAAATATATT [CACACA_site2511] | 9.61 ± 0.18
21 | AGAATTACTTAAAAAAGTACATAAAATTATTTAAAA [XGTACX_site2205] | 8.35 ± 0.6
22 | AATACACCCAGACACACACACAAAAAAAAAAAAAAA [CACACA_site513] | 9.53 ± 0.61
23 | TTTGAATCCTTATATACACACATTATGTAATATTAT [CACACA_site561] | 8.96 ± 0.5
24 | AAAAGAGAAATGGGCACACACACACCGATTATATAT [CACACA_site4942] | 9.9 ± 0.42
25 | ATATATATATTAAATACACACATTTTTGATTAGGTT [CACACA_site3119] | 8.97 ± 0.33
26 | TTATTATCTCTTGTCATTATTATATACTAAGAAGTA [CACACA_negctrl_site410] | 8.51 ± 0.52
27 | AATATGAAATATATTACACACATTTATATGTTGAAA [CACACA_site1427] | 8.8 ± 0.41
28 | AAAGATTTAGAAAATGAACACACGAGCACCCACCGA [CACACA_site1017] | 9.43 ± 0.11
29 | GAAAGAGAGATATATACACACATATTTATATTTTTA [CACACA_site7057] | 8.88 ± 0.45
30 | ATATTAAGAATGTATACATGCATATATATATAGTAC [TGCATGCA_site219] | 9.08 ± 0.35
31 | TTCGTTAAAAATAAATGTACATAAATAAACCTTATT [XGTACX_site621] | 8.51 ± 0.44
32 | ATTTTAATAAACACTTACATGTTTTCCAAATTGTAT [CACACA_negctrl_site1807] | 8.77 ± 0.4
33 | TATTAATAAATATGTTTACACACGAAAATACATTTT [CACACA_site1012] | 8.75 ± 0.42
34 | TCTAATTATCACATTGCACACACATTTCCTTTTACA [CACACA_site9140] | 9.63 ± 0.28
35 | TAATTAATTTATGTAACACACATTGTTGATTCAATA [CACACA_site1098] | 8.77 ± 0.4
36 | TTATACTGTATAGTCGCACACAAAAATATAAAATAT [CACACA_site3869] | 9.29 ± 0.36
37 | AAAAGTCTCTTTTTAGTGCACATTTTATTTAAATAT | 8.7 ± 0.44
38 | CAGATAAGGTGAAGCTGTACAAAAATGTTTTATAAC [XGTACX_site6783] | 8.88 ± 0.58

Row | Sequence | gcPBM binding intensity (ln)
39 | TGTCTTTATATATATTTATTTTTTAGTATTACATAA [CACACA_negctrl_site21] | 8.61 ± 0.47
40 | TATCTTTTTTTTAATACACACAAATTTATGAAAGTA [CACACA_site7879] | 8.54 ± 0.37
41 | ATTTTCATATTTTTATGTACATATTATAAGAATATA [XGTACX_site3691] | 8.61 ± 0.46
42 | ATGGAATATTTCATGATTTTTTTAATTTTTTTATTG [XGTACX_negctrl_site55] | 8.57 ± 0.54
43 | TTTATATCTTATTATAGGAAAATGAATATTTTCTCT [TGCATGCA_negctrl_site478] | 8.31 ± 0.56
44 | ACAAAACATATATTCTGTACATATATAATGGTGACT [XGTACX_site6796] | 8.95 ± 0.4
45 | AAAAAAGAGGGATACACACAAACATATATATATATA [CACACA_site2243] | 9.865 ± 0.0071
46 | AAGAAAATATAAATATGTACTTAATAATTTATTTAT [XGTACX_site8100] | 8.4 ± 0.45
47 | AGGATACACGGACACACACACATATATATATATATA [CACACA_site4654] | 10.43 ± 0.078
48 | TATTAAAATAACATACGTACATAAGTATATAAAAAA [XGTACX_site1769] | 8.78 ± 0.42
49 | TATATTAATTAACAGTGTACAAAAAAAAATAAAAAA [XGTACX_site3702] | 8.78 ± 0.63
50 | TTTATTTTAAAATTTACACACAAAAGGATTTATAGA [CACACA_site2338] | 8.52 ± 0.42
51 | AAAATAAAAAGAAATTGTACGTATAATAATATATTT [XGTACX_site7593] | 8.77 ± 0.45
52 | TTTATTCCAGTATTCACACACGAATAACCACATAAC [CACACA_site5104] | 9.13 ± 0.29
53 | CTATACATATTATATAGTACTTTATTATTATGACTA [XGTACX_site1382] | 8.72 ± 0.36
54 | ATAATTCTTTATTATAGTACACAAACTTTCAAAACA [XGTACX_site3597] | 8.41 ± 0.35
55 | TGTATTTATAGCAATACACACATAACAATAAATATA [CACACA_site3328] | 8.95 ± 0.37
56 | TATATAAGAGGAAAAAGTACAGAAAAACAAAGAGAA [XGTACX_site2926] | 9 ± 0.49
